According to a collection of fitness landscapes (doi:10.1016/j.celrep.2020.107928):
The full ranking holds about 81,000 sequences; the median of “one-hybrid fitness for binding parS DNA” is about -0.17, and the highest 2% start at about 0.51. This is one part of the list.

B1: Caulobacter ParB omega fusion; a variant is named by its letters at X, in order, B8GW30 (parent)
chain: MESVVVGEPGMSEGRRGLGRGLSALLGEVDAAPAQAPGEQLGGSREAPIEILQRNPDQPRRTFREEDLEDLSNSIREKGVLQPILVRPSPDTAGEYQIVAGERAWRAAQRAGLKTVPIMVRELDDLAVLEIGIIENVQRADLNVLEEALSYKVLMEKFERTQENIAQTIGKSXSHVANXMRLLXLPDEVQSYLVSGELTAXHARAIAAAADPVALAKQIIEGGLSVRETEALARKAPNLSAGKSKGGRPPRVKDTDTQALESDLSSVLGLDVSIDHRGSTGTLTITYATLEQLDDLCNRLTRGI

Variants of: B1
Assay: one-hybrid fitness for binding parS DNA (scaled: cognate 1, non-cognate 0); higher = stronger binding
Settings: with parS DNA site
Summary of the method: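 Bacterial one-hybrid selection in E. coli USO rpoZ- hisB- pyrF- with a HIS3 reporter carrying the site 19 bp from the promoter, screening Caulobacter ParB libraries with four specificity codons randomised (NNS). Cells grew 48 hours at 37°C on M9-minus-histidine plus 0.1 mM IPTG and 5 mM 3-AT. Plasmids before and after selection were Illumina-sequenced, three replicate libraries pooled, and variants under 10 reads dropped. Fitness is the log change in variant-to-wild-type read ratio, rescaled to cognate 1, non-cognate 0.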

Variant | one-hybrid fitness for binding parS DNA
WLCN | ≤ 0.2
YNKT | ≤ 0.2
RKGV | ≤ 0.2
EQTV | ≤ 0.2
SFPR | ≤ 0.2
TKSR | ≤ 0.2
HTYI | ≤ 0.2
QIPE | ≤ 0.2
CDPK | ≤ 0.2
PGNQ | ≤ 0.2
RLCM | 0.342
IDPT | ≤ 0.2
DDSW | ≤ 0.2
RHEL | ≤ 0.2
GTVE | ≤ 0.2
TNFF | ≤ 0.2
NTAG | ≤ 0.2
LPFA | 0.253
QPVM | ≤ 0.2
YRKH | ≤ 0.2
CMNT | ≤ 0.2
WIPR | ≤ 0.2
AILC | ≤ 0.2
QAEG | ≤ 0.2

Variant | one-hybrid fitness for binding parS DNA
ERMT | ≤ 0.2
YLMT | ≤ 0.2
MYTF | ≤ 0.2
PPCS | ≤ 0.2
CAGF | ≤ 0.2
IHED | ≤ 0.2
ITSR | ≤ 0.2
HYVS | ≤ 0.2
NLGD | ≤ 0.2
VKKH | ≤ 0.2
ACFR | ≤ 0.2
RTGM | 0.33
KPSI | ≤ 0.2
NYCR | ≤ 0.2
SGNA | ≤ 0.2
LQGP | ≤ 0.2
MKCN | ≤ 0.2
GDPW | ≤ 0.2
QVMM | ≤ 0.2
MILV | ≤ 0.2
RHSK | ≤ 0.2
DGKQ | ≤ 0.2
AVRH | ≤ 0.2
SAVW | ≤ 0.2

Variant | one-hybrid fitness for binding parS DNA
HTSP | ≤ 0.2
AYDL | ≤ 0.2
RVSF | 0.224
PRGW | ≤ 0.2
WGLN | ≤ 0.2
YCEG | ≤ 0.2
HAAG | ≤ 0.2
PAAW | ≤ 0.2
LRIN | ≤ 0.2
WQYR | ≤ 0.2
PLQR | ≤ 0.2
WTQS | ≤ 0.2
RKIR | ≤ 0.2
NQRS | ≤ 0.2
VFSS | ≤ 0.2
RHPY | ≤ 0.2
PPSW | ≤ 0.2
LTLY | ≤ 0.2
DIAS | ≤ 0.2
TAPS | ≤ 0.2
LNLS | ≤ 0.2
RGMC | 0.543
AQQI | ≤ 0.2
DASK | ≤ 0.2

Variant | one-hybrid fitness for binding parS DNA
SKFC | ≤ 0.2
QCRR | 0.266
RRSD | ≤ 0.2
PHHP | ≤ 0.2
PKCQ | ≤ 0.2
VHCG | ≤ 0.2
DCRC | ≤ 0.2
VLRR | ≤ 0.2
QVKS | ≤ 0.2
EPVK | ≤ 0.2
GAKK | ≤ 0.2
NSIL | ≤ 0.2
SICS | ≤ 0.2
VSPL | ≤ 0.2
YSHG | ≤ 0.2
HSGT | ≤ 0.2
EAQS | ≤ 0.2
LSAK | ≤ 0.2
FLSC | ≤ 0.2
PRAV | ≤ 0.2
CRAG | ≤ 0.2
TYKN | ≤ 0.2
VVPF | ≤ 0.2
LSRD | ≤ 0.2

Variant | one-hybrid fitness for binding parS DNA
CLKT | ≤ 0.2
TRGI | ≤ 0.2
FTMC | ≤ 0.2
NPHT | ≤ 0.2
YSCC | ≤ 0.2
MYTD | ≤ 0.2
SLDC | ≤ 0.2
ISAE | ≤ 0.2
ILKM | ≤ 0.2
VWKM | ≤ 0.2
CCTW | ≤ 0.2
DARV | ≤ 0.2
KHEE | ≤ 0.2
ETLM | ≤ 0.2
NARR | ≤ 0.2
CLKG | ≤ 0.2
KIKM | ≤ 0.2
SVCR | ≤ 0.2
ITAC | ≤ 0.2
NRMM | ≤ 0.2
LRHM | ≤ 0.2
AVWI | ≤ 0.2
QRKT | ≤ 0.2
KSPF | ≤ 0.2

Variant | one-hybrid fitness for binding parS DNA
VGCS | ≤ 0.2
CTGD | ≤ 0.2
CWST | ≤ 0.2
RPAY | ≤ 0.2
KLQM | ≤ 0.2
ALKH | ≤ 0.2
RANI | ≤ 0.2
QANE | ≤ 0.2
QRAN | ≤ 0.2
QAFS | ≤ 0.2
TDAT | ≤ 0.2
KCYW | ≤ 0.2
SYSW | ≤ 0.2
IPNG | ≤ 0.2
QPSP | ≤ 0.2
HPSP | ≤ 0.2
SVYI | ≤ 0.2
YNAC | ≤ 0.2
VWNE | ≤ 0.2
ASAQ | ≤ 0.2
YENF | ≤ 0.2
WFSR | ≤ 0.2
HLAN | ≤ 0.2
TQDS | ≤ 0.2

Variant | one-hybrid fitness for binding parS DNA
LFYE | ≤ 0.2
GWIR | ≤ 0.2
IIPP | ≤ 0.2
EVPF | ≤ 0.2
ETRS | ≤ 0.2
INMM | ≤ 0.2
FIMF | ≤ 0.2
SHYV | ≤ 0.2
DQRH | ≤ 0.2
TIDE | ≤ 0.2
TATC | ≤ 0.2
SADV | ≤ 0.2
RPLG | ≤ 0.2
QFEG | ≤ 0.2
SMAW | ≤ 0.2
FPWS | ≤ 0.2
ALVV | ≤ 0.2
RERQ | ≤ 0.2
SNLW | ≤ 0.2
PCYR | ≤ 0.2
AAAV | ≤ 0.2
EMYR | ≤ 0.2
QVDS | ≤ 0.2
QGAT | ≤ 0.2

Variant | one-hybrid fitness for binding parS DNA
YRPT | ≤ 0.2
EDQC | ≤ 0.2
PWRP | ≤ 0.2
MCFS | ≤ 0.2
LFHT | ≤ 0.2
APQT | ≤ 0.2
DPSL | ≤ 0.2
NLFK | ≤ 0.2
TPKR | ≤ 0.2
EIES | ≤ 0.2
DELH | ≤ 0.2
VHKT | ≤ 0.2
TCRW | ≤ 0.2
WFIS | ≤ 0.2
HLDN | ≤ 0.2
MPES | ≤ 0.2
HHWR | ≤ 0.2
WSTG | ≤ 0.2
QWTL | ≤ 0.2
KNKC | ≤ 0.2
AYMV | ≤ 0.2
EDQL | ≤ 0.2
ENAF | ≤ 0.2
HMHC | ≤ 0.2

Variant | one-hybrid fitness for binding parS DNA
RTWL | ≤ 0.2
RRRC | 0.634
RNIG | 0.597
TTPA | ≤ 0.2
LGRF | ≤ 0.2
QSKI | ≤ 0.2
CGKG | ≤ 0.2
HAYS | ≤ 0.2
DWPR | ≤ 0.2
NAVE | ≤ 0.2
QVYW | ≤ 0.2
NQKR | ≤ 0.2
YWAS | ≤ 0.2
AIFG | ≤ 0.2
ETTV | ≤ 0.2
LYWL | ≤ 0.2
GRGC | ≤ 0.2
KLHT | ≤ 0.2
WMRT | ≤ 0.2
TSQY | ≤ 0.2
MENG | ≤ 0.2
DIER | ≤ 0.2
NNYY | ≤ 0.2
HSVR | ≤ 0.2

Variant | one-hybrid fitness for binding parS DNA
DAAD | ≤ 0.2
PGGS | ≤ 0.2
RLQL | ≤ 0.2
NLQY | ≤ 0.2
WYDC | ≤ 0.2
TERI | ≤ 0.2
QKVH | ≤ 0.2
ANTD | ≤ 0.2
CSPS | ≤ 0.2
IISW | ≤ 0.2
LPAE | ≤ 0.2
GTER | ≤ 0.2
KIPI | ≤ 0.2
AIME | ≤ 0.2
DHPC | ≤ 0.2
RNKV | ≤ 0.2
ILPA | ≤ 0.2
ELSK | ≤ 0.2
WNAG | ≤ 0.2
CQKT | ≤ 0.2
TCYD | ≤ 0.2
PILW | ≤ 0.2
PQSY | ≤ 0.2
CSPI | ≤ 0.2

Variant | one-hybrid fitness for binding parS DNA
PASD | ≤ 0.2
NDDC | ≤ 0.2
CHKL | ≤ 0.2
PVTQ | ≤ 0.2
DWPT | ≤ 0.2
VPHG | ≤ 0.2
GNYY | ≤ 0.2
WNSI | ≤ 0.2
RNIH | ≤ 0.2
MWYS | ≤ 0.2
AETN | ≤ 0.2
LQIR | ≤ 0.2
GLWL | ≤ 0.2
VTNE | ≤ 0.2
GTKC | ≤ 0.2
VSPY | ≤ 0.2
AHSW | ≤ 0.2
RTDN | 0.404
TLHQ | ≤ 0.2
CTFS | ≤ 0.2
TSEW | ≤ 0.2
WGET | ≤ 0.2
RSFH | ≤ 0.2
MEIG | ≤ 0.2

Variant | one-hybrid fitness for binding parS DNA
EIYF | ≤ 0.2
DLCT | ≤ 0.2
PMTV | ≤ 0.2
RAAP | ≤ 0.2
QTIP | ≤ 0.2
SRNM | ≤ 0.2
GYHT | ≤ 0.2
QNFL | ≤ 0.2
MSNC | ≤ 0.2
VNGS | ≤ 0.2
RNAE | ≤ 0.2
NITI | ≤ 0.2
SRRT | ≤ 0.2
ENND | ≤ 0.2
DNQM | ≤ 0.2
PGRA | ≤ 0.2
ARDE | ≤ 0.2
VVHL | ≤ 0.2
GPNH | ≤ 0.2
VAGL | ≤ 0.2
PPVT | ≤ 0.2
RCFH | ≤ 0.2
NYKT | ≤ 0.2
GQHI | ≤ 0.2

Variant | one-hybrid fitness for binding parS DNA
QPSV | ≤ 0.2
ENTK | ≤ 0.2
MLMY | ≤ 0.2
KWMS | ≤ 0.2
AYMK | ≤ 0.2
RPDT | ≤ 0.2
PHQI | ≤ 0.2
LASL | ≤ 0.2
RMQY | 0.546
DPCS | ≤ 0.2
SQNE | ≤ 0.2
NHSN | ≤ 0.2
EHMR | ≤ 0.2
CPSG | ≤ 0.2
GPNW | ≤ 0.2
ALLW | ≤ 0.2
FCIC | ≤ 0.2
AIDS | ≤ 0.2
